Measured values taken from PubChem BioAssay AID1240 (Sanford-Burnham Center for Chemical Genomics, 2008).
In all, about 50,000 compounds went through this assay and about 800 (1.6%) showed an effect of 50% or more. The list shows a part of the results.

target: Bcl-2-like protein 10 (Homo sapiens) (UniProt Q9HD36); assay: TR3 peptide-Bcl-B binding displacers, biochemical primary FP assay, phenotype converters (AID 1240); settings: GST-Bcl-B / FITC-TR3 peptide fluorescence polarization; stronger effect = higher value; compound at 3.75 mg/L;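 further: 0% = Bcl-B with tracer peptide and DMSO and 100% = tracer peptide lacking Bcl-B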
Sequence of UniProt Q9HD36 (Q9HD36 whole entry, looked up): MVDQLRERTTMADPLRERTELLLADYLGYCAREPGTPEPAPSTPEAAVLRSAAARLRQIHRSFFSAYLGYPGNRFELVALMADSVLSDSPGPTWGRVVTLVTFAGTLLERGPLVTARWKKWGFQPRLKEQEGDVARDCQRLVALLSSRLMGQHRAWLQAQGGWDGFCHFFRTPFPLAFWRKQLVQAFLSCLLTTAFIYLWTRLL

First: c1ccc2nc(NCc3ccncc3)ccc2c1
Second: COc1ccc2ccccc2c1/C=N/NC(=O)c1cccc(Cl)c1
The displacement of the first is lower: -8.8% for the first, -7.8% for the second.

Compared with `O=[N+]([O-])c1ccc(/C(=N\Nc2ccccc2)c2cc(O)ccc2O)cc1`, `O=c1cc(-c2ccccc2)[nH]n1-c1ccc([N+](=O)[O-])cc1` is lower in displacement: 6.6% for the first, -4.4% for the second.

Going from `Cc1ccc(OCC(=O)Nc2cc3nn(-c4ccc(C)cc4)nc3cc2C)cc1` to `Cc1ccc(OCC(=O)N2CCc3ccccc3C2)cc1`, the displacement rises from 1.3% to 7.1%.

First: CCOC(=O)c1ccc(N2C(=O)C3C(c4ccc(C)cc4)OC4(C(=O)c5ccccc5C4=O)C3C2=O)cc1 (stereo not drawn)
Second: COc1ccc(C2CC(=O)C3=C(C2)Nc2ccccc2NC3c2ccc(C)cc2)cc1 (stereo not drawn)
The displacement of the first is lower: -7.3% for the first, -6.6% for the second.

Going from `NC(=O)c1ccc(NC(=O)COc2ccccc2Cl)cc1` to `Cc1ccc(NC(=O)/C(=C/c2ccccc2Cl)NC(=O)c2ccc(C)cc2)cc1`, the displacement falls from -2% to -5%.

First: CCOC(=O)c1cccc(N2C(=O)C=CC2=O)c1
Second: O=C(/C=C/c1ccc(/C=C/C(=O)c2cccc(N3C(=O)C=CC3=O)c2)cc1)c1cccc(N2C(=O)C=CC2=O)c1
The displacement of the first is higher: 9.4% for the first, 5.6% for the second.

First: CCOC(=O)c1c(NC(=O)c2ccc(Cl)cc2)sc(C(=O)Nc2cc(C(F)(F)F)ccc2Cl)c1C
Second: CCOc1ccccc1NC(=O)c1c(NC(=O)c2ccccc2Cl)sc2c1CCCC2
The displacement of the first is higher: 7.7% for the first, -4.6% for the second.

`Cc1ccc(N=Cc2c[nH]c3ccccc23)cc1[N+](=O)[O-]` and `Cc1cc(C)c([N+](=O)[O-])cc1-c1ccc(C=C2C(=O)c3ccccc3C2=O)o1` are the same in displacement: -3.4% for the first, -3.4% for the second.

Compared with `Cc1ccccc1NC(=O)c1cccnc1`, `COc1c(Cl)cc(C(=O)Nc2cccnc2)cc1Cl` is higher in displacement: -3.6% for the first, -2.7% for the second.

Going from `Cc1cccc(OCC(=O)NCC(=O)n2nc(C)cc2C)c1` to `CCCOc1cccc(C(=O)Nc2cccc(C(=O)Nc3nccs3)c2)c1`, the displacement falls from -0.8% to -6.4%.

First: COc1cccc(NC(=O)CN(c2cccc([N+](=O)[O-])c2)S(=O)(=O)c2ccccc2)c1
Second: CC1CCN(C(=O)CN(c2cccc([N+](=O)[O-])c2)S(=O)(=O)c2ccccc2)CC1
The displacement of the first is lower: -7.1% for the first, 3.3% for the second.

Going from `Cc1cc(/C=C2\C(=O)NC(=O)N(c3ccc(Br)cc3)C2=O)c(C)n1-c1cccnc1` to `COC(=O)c1ccc(/C=C2\C(=O)NC(=O)N(c3cc(C)cc(C)c3)C2=O)cc1`, the displacement falls from 40.6% to 6.8%.

Compared with `Cc1ccc2nc(SCC(=O)Nc3ccc(Br)cc3)[nH]c2c1`, `O=C(CSc1nc2ccc(NC(=O)c3ccc(Cl)cc3Cl)cc2s1)Nc1ccccc1` is higher in displacement: -12% for the first, 31% for the second.

Going from `CCSc1nnc2c(n1)OC(c1ccc(OCc3ccccc3)cc1)Nc1ccccc1-2` (stereo not drawn) to `CCOC(=O)CN1C(c2ccccc2O)Nc2ccc(Br)cc2C1c1ccccc1` (stereo not drawn), the displacement falls from 120% to 20.7%.

First: Cc1ccc(/C(O)=C2\C(=O)C(=O)N(CCCC(=O)O)C2c2ccc(Br)cc2)cc1 (stereo not drawn)
Second: CC(=O)Cc1cc(O)c2ccccc2c1OC(=O)c1ccc(Br)cc1
The displacement of the first is higher: 3% for the first, -2.7% for the second.

Going from `CCOc1cc(/C=c2\sc3nc4ccccc4n3c2=O)cc(Br)c1OCc1ccc(F)cc1` to `CCOc1cc(/C=C2\C(=O)NN(c3ccccc3)C2=O)cc(Br)c1O`, the displacement falls from 15.9% to -0.2%.

Compared with `NS(=O)(=O)c1ccc(N/C=C/C(=O)c2ccc(Cl)c(Cl)c2)cc1`, `Cc1c(Cl)c([N+](=O)[O-])nn1CC(=O)Nc1ccc(S(N)(=O)=O)cc1` is lower in displacement: 4.8% for the first, -2.7% for the second.

Compared with `CC(=O)CC(=O)Nc1ccc2[nH]c(=O)[nH]c2c1`, `NC(=O)SCC(=O)Nc1cccc(F)c1` is higher in displacement: -2.2% for the first, 6.8% for the second.

Going from `N#C/C(=C\c1ccc(-c2ccc(Cl)c(Cl)c2)o1)C(N)=O` to `CC(=O)c1cccc(NC(=O)c2c(Cl)cccc2Cl)c1`, the displacement falls from 7.8% to 1.4%.

Compared with `Cc1cc2ncn(C(=O)c3ccco3)c2cc1C`, `Cc1ccc(C(=O)Nc2cc(Cl)ccc2C)cc1C` is lower in displacement: 11.9% for the first, 5.3% for the second.

First: COc1ccc(CCNC(=O)/C(=C/c2ccc(C(C)C)cc2)NC(=O)c2ccccc2)cc1OC
Second: COc1ccc(NC(=O)/C(=C\c2ccccc2OC)NC(=O)c2ccccc2OC)cc1
The displacement of the first is higher: 8.8% for the first, 3% for the second.

First: CCOc1ccc(/C=N/NC(=O)c2cc(-c3ccccc3)n[nH]2)cc1
Second: CCOc1ccc(C=Nc2ccc(I)cc2)cc1
The displacement of the first is higher: -6% for the first, -7.2% for the second.

First: Nc1cc(S(=O)(=O)Nc2ccccc2)ccc1Cl
Second: C#Cc1cccc(NS(=O)(=O)c2ccc(NC(C)=O)cc2)c1
The displacement of the first is higher: 14.2% for the first, 2.4% for the second.

Compared with `COc1ccc(CC(=O)O/N=C(\N)Cc2ccc(Cl)cc2Cl)cc1OC`, `COc1ccc(C(=O)Nc2cc(Cl)ccc2C)cc1OC` is lower in displacement: 10.1% for the first, -5.3% for the second.

Going from `COc1ccccc1/C=N\N1CCN(c2ccccc2OC)CC1` to `COc1ccccc1N1CCN(/N=C/c2ccccc2C)CC1`, the displacement rises from -4.6% to 11.2%.

Going from `O=C(Nc1ccccc1-c1nc2ccccc2[nH]1)c1ccc(S(=O)(=O)N2CCCCC2)cc1` to `Cc1ccc(C(=O)Nc2c(C(=O)Nc3cccnc3)cnn2-c2ccccc2)cc1`, the displacement rises from -6.6% to -3.3%.

Going from `Cc1ccc(N2C(=O)/C(=C/C=C/c3ccccc3)C(=O)NC2=S)cc1` to `CCOc1ccc(Br)cc1/C=C1/C(=O)NN(c2ccccc2)C1=O`, the displacement falls from 8.5% to -6%.

Compared with `Cc1sc(NC(=O)C2CC=CCC2C(=O)O)c(C#N)c1C` (stereo not drawn), `COC(=O)c1c(-c2ccccc2)csc1NC(=O)C1CCCCC1C(=O)O` (stereo not drawn) is lower in displacement: 3.3% for the first, -9.1% for the second.

First: CCOc1ccc(S(=O)(=O)N(CC(=O)N2CCCC2)c2ccc(C)cc2)cc1
Second: COc1ccc(N(CC(=O)Nc2cc(OC)ccc2OC)S(=O)(=O)c2ccc(OC)c(OC)c2)cc1
The displacement of the first is lower: -10.5% for the first, 16.8% for the second.

First: COc1ccc(NC(=O)c2ccc(Br)o2)cc1OC
Second: COc1ccc(/C=C/C(=O)Nc2ccccc2Cl)cc1OC
The displacement of the first is lower: -12.2% for the first, -2.5% for the second.

First: CCOc1ccc(C2C(C(=O)OCCOC)=C(C)NC3=C2C(=O)CC(C)(C)C3)cc1 (stereo not drawn)
Second: COc1ccc(N=C2CC(C)(C)CC(O)=C2C(C)=O)cc1
The displacement of the first is higher: -3% for the first, -18.1% for the second.

Going from `CC(C)CN(CC(C)C)C(=O)/C=C/c1ccc(Cl)cc1` to `CN1C(=O)/C(=C\c2ccc(N(C)C)cc2)SC1=S`, the displacement falls from 10.4% to -32.7%.

Compared with `Cc1cccc(/C=N/N2CCN(c3ccccc3)CC2)c1`, `O=C(c1ccc([N+](=O)[O-])cc1Cl)N1CCN(c2ccc(F)cc2)CC1` is lower in displacement: 16.7% for the first, -5.4% for the second.

Going from `CN1C(=O)NC(=O)/C(=C/c2ccc(-c3ccc([N+](=O)[O-])cc3Cl)o2)C1=O` to `CC(=O)/C=C/c1oc2ccc([N+](=O)[O-])cc2c1-c1ccc(C)o1`, the displacement falls from 93.6% to 80.9%.

First: O=C1N/C(=N\N=C\c2ccccc2O)SC1Cc1ccc(Cl)cc1 (stereo not drawn)
Second: CCOC(=O)Nc1ccc2c(c1)N(C(=O)CCN)c1ccccc1S2
The displacement of the first is higher: 8.7% for the first, 3.8% for the second.

First: CCC(=O)C1=C(N2CCOCC2)CC(C)(C)CC1=O
Second: COc1ccc(C(=O)NCCCN2CCOCC2)cc1Br
The displacement of the first is lower: -18.9% for the first, -1.9% for the second.

Compared with `C#CCOc1c(Cl)cc(C2C(C(=O)OC)=C(C)NC3=C2C(=O)c2ccccc23)cc1Cl` (stereo not drawn), `COc1cc(NC(=O)c2sc3ccccc3c2Cl)c(OC)cc1Cl` is lower in displacement: 13.1% for the first, 12% for the second.

Going from `O=C(Nc1ccc(F)c(F)c1)c1cnccn1` to `COc1ccc(OC)c(/C=N\NC(=O)c2cnccn2)c1`, the displacement rises from -3.3% to -1.9%.

First: COc1ccc(/C=C2\N=C(c3ccccc3F)OC2=O)c(OC)c1
Second: COc1cc(C(=O)Oc2ccc(/C=N/NC(=O)COc3cccc4ccccc34)cc2)cc(OC)c1OC
The displacement of the first is higher: 72.1% for the first, 0.1% for the second.

Going from `NC(=O)COc1ccc(/C=c2/sc3n(c2=O)CCCN=3)cc1` to `CSCCC(C(=O)O)N1C(=O)/C(=C/c2cccc(O)c2)SC1=S` (stereo not drawn), the displacement rises from 6.4% to 13%.

Going from `CCC(COC(C)=O)NC1=C(Cl)C(=O)c2ccccc2C1=O` (stereo not drawn) to `CCOC(=O)c1c(NC(=O)CCN2C(=O)c3ccccc3C2=O)sc(C(C)=O)c1C`, the displacement falls from 9.8% to -7.5%.

Compared with `CCOP(=O)(CN(C)S(=O)(=O)c1ccc(C)cc1)OCC`, `CCc1ccccc1N(CC(=O)OC)S(C)(=O)=O` is higher in displacement: -24.9% for the first, 10.2% for the second.

Going from `C=CCNC(=O)C(=O)NCc1ccccn1` to `CCNC(=S)NNC(=O)CSc1nc2ccccc2n1CC`, the displacement falls from -0.3% to -27.3%.

Going from `COC(=O)C1=C(C)NC(=O)NC1c1cccc(I)c1` (stereo not drawn) to `CCOC(=O)c1c(NC(C)=O)sc2cc(C(C)(C)C)ccc12`, the displacement falls from 2.2% to -4.1%.

Going from `O=C(c1nn2c(C(F)(F)F)cc(-c3ccco3)nc2c1Cl)N1CCN(Cc2ccccc2)CC1` to `O=C(/C=C/c1ccccc1)Nc1nnc(-c2ccco2)s1`, the displacement rises from 1.1% to 20.7%.

`Cc1cc(=O)[nH]c2cc(-c3ccccc3)nn12` and `CN(C)/C=C1/C=C(c2ccccc2)OC1=O` are the same in displacement: -11.5% for the first, -11.5% for the second.

Going from `COc1cc(C2SC(NC(C)=O)=NN2C(C)=O)cc(OC)c1OC` (stereo not drawn) to `COc1cc(OC)cc(C(=O)Nc2ccc(C)c(C)c2)c1`, the displacement rises from -9.1% to 8.7%.

First: COc1ccc(-c2nc3cc(NC(=O)c4ccc5c(c4)OCCO5)ccc3o2)cc1Br
Second: COc1ccc(C(=O)CSc2nnc(-c3cccc(Br)c3)o2)cc1
The displacement of the first is lower: 2.7% for the first, 11.1% for the second.

First: O=C(CN1C(=O)/C(=C/c2cccc(Br)c2)SC1=S)Nc1cccnc1
Second: Cc1ccc(N=C2NC(=O)/C(=C\c3cccc(Br)c3)S2)cc1C
The displacement of the first is higher: 9.6% for the first, 8.8% for the second.

Going from `C/C(=N\NC(=O)c1cc(C2CC2)[nH]n1)c1ccc(Cl)cc1` to `CN(C)c1ccc(/C=N/NC(=O)C(=O)N/N=C/c2ccc(N(C)C)cc2)cc1`, the displacement falls from 6.3% to 1%.

First: Cc1ccc(C2Nc3ccccc3NC3=C2C(=O)CC(c2ccc4c(c2)OCO4)C3)s1 (stereo not drawn)
Second: O=C(c1cccc([N+](=O)[O-])c1)c1ccc2c(c1)C(=O)N(c1ccccc1C(=O)O)C2=O
The displacement of the first is lower: -5.1% for the first, -2.7% for the second.

Compared with `O=C(/C=C/c1cccs1)c1ccncc1`, `Cc1cccc(C)c1NC(=O)Nc1c(C)cccc1C` is higher in displacement: -7.9% for the first, -1.4% for the second.

Compared with `C=CCOc1ccc(/C=C2\C(=O)N(c3ccc(S(N)(=O)=O)cc3)N=C2C)cc1OC`, `CC(C)=C1C2C=CC1C1C(=O)N(c3ccccc3[N+](=O)[O-])C(=O)C21` (stereo not drawn) is higher in displacement: -1.6% for the first, 15% for the second.

First: C=C(C)CSc1nc(N)c2c3c(sc2n1)COC(C)(CC)C3 (stereo not drawn)
Second: O=C(N=Nc1c(O)[nH]c2c(Br)cc(Br)cc12)c1ccccn1
The displacement of the first is lower: -2.5% for the first, 0.8% for the second.
